Whole data set: some 5,400 compounds, median “IFI” near 2, cut for the highest 2% near 22. This is one part of the list.

The nature of the assay: NOVARTIS: Inhibition Frequency Index (IFI) - the number of HTS assays where a compound showed > 50% inhibition/induction, expressed as a percentage of the number of assays in which the compound was tested. Type of assay: functional.
The molecule `COc1cccc(CN2CCc3nc(N4CCCCC4)sc3C2)c1` came in with an IFI of 9.72%. As to `Cc1ccc(NC(=O)CN2CCN(c3ccccn3)CC2)cc1F`, the IFI came to 0%. For `COc1ccc(NC(=O)Cn2c(-c3ccc(OC)cc3)cn(-c3ccc(C)cc3)c2=O)cc1`, the IFI worked out at 0%. The value for `O=[N+]([O-])c1ccc2nc(Nc3ccccc3)c(Nc3ccccc3)nc2c1` was 14.3%; that for `CCn1c(CNc2ccc(Cl)cc2)nnc1SCC(=O)Nc1cccc(C)c1C` was 2.88%. `Oc1ccc(C2Nc3ccc4ccccc4c3C3C=CCC32)cc1` (stereo unspecified) displayed an IFI of 0%. Next, `CC(=O)Nc1cccc(N(C(=O)C2COc3ccccc3O2)C(C(=O)NC2CCCCC2)c2ccc(O)cc2)c1` (stereo unspecified): 2.08%. Molecule `Cc1cc(C)c2nc(NS(=O)(=O)c3cccc(C(=O)O)c3)sc2c1` registered an IFI of 0%.

`COc1ccc2[nH]c3c(=O)n(C)cnc3c2c1` gave an IFI of 0%.

Molecule `CSc1nc(SC)c2c3c(sc2n1)CN(C)CC3` showed an IFI of 3.03%. Next, `COc1ccc(CN2CCN(Cc3ccc(OC)c(C)c3C)C(CCO)C2)c(O)c1` (stereo unspecified): 0%; `C=CCNC(=O)CSc1ccc(C(=O)Nc2ccc(Cl)cc2F)cc1[N+](=O)[O-]`: 0%.

`COc1ccc(C2CC(=O)C3=C(C2)NC(C)=C(C(=O)OC(C)C)C3c2ccccc2Br)cc1` (stereo unspecified) had an IFI of 4.6%. Next, `c1ccc2c(NCCNc3c4ccccc4nc4ccccc34)c3ccccc3nc2c1`: 7.32%.

The molecule `C=CCN1Cc2ccc(C(=O)NCc3ccccc3)cc2N=C1c1ccc(F)cc1` had an IFI of 3.9%. The value for `O=C1CC(c2ccccc2)CC2=C1C(c1cc(F)ccc1F)Nc1ccccc1N2` (stereo unspecified) was 1.21%. The value for `COc1cc(C=NNc2nc3nonc3nc2Nc2ccc(Cl)cc2)ccc1O` was 7.69%. The value for `CCC(C)(C)c1ccc(OCCCC[n+]2ccc(C)cc2)c(C(C)(C)CC)c1` was 7.14%.

The molecule `O=C(Nc1ccc2c(c1)OCO2)c1cc2cc(C3(O)CCN(CCCc4ccccc4)CC3)ccc2o1` showed an IFI of 5.22%.

Regarding `CC1CN(C(=O)C(Cc2c[nH]c3ccccc23)NC(=O)CCl)CCN1C(=O)Nc1ccccc1` (stereo unspecified), the IFI was 1.87%. The value for `CCOC(=O)c1nnn(-c2nonc2N)c1-c1ccc(Cl)cc1` was 0%. The value for `O=C(Nc1nc2ccccc2s1)c1ccc(S(=O)(=O)N2CCOCC2)cc1` was 5.34%.

Consider `CCCC(=O)N1CCN(C(=O)c2nc(-c3ccccc3)nc(CCC)c2C(=O)OCC)CC1C` (stereo unspecified), for which the IFI amounted to 4.63%. `O=C(NCCCCNc1ccnc2cc(Cl)ccc12)C1CCCCC1` gave an IFI of 4.67%.

Take `CC(CC(=O)NCCCCNc1ccnc2cc(Cl)ccc12)CC(C)(C)C` (stereo unspecified): the IFI came to 3.74%. The value for `CCOc1cc(Br)cc(/C=C2\NC(=S)NC2=O)c1O` was 0%; that for `Cc1ccc(C(=O)NC2CCN(S(=O)(=O)c3c(C)cc(C)cc3C)CC2)cc1` was 3.85%; that for `COC(=O)c1c(-c2c(Cl)cccc2Cl)noc1/C=C/Nc1ccccc1` was 2.67%.

In turn, `COc1ccc2nc(C)cc(Nc3ccc(Oc4ccc(Cl)c5ccccc45)c(Cl)c3)c2c1` displayed an IFI of 10.1%. Next, `CC(C)c1ccc(/C=C2/SC(=Nc3ccccc3)NC2=O)cc1`: 0%; `CCN(CC)CCCC(C)Nc1cc(/C=C/c2ccc([N+](=O)[O-])cc2)nc2ccc(OC)cc12` (stereo unspecified): 4.54%. The value for `CCCC(=O)N1CCN(C(=O)c2nc(-c3ccccc3)nc(C(C)C)c2C(=O)OC)CC1C` (stereo unspecified) was 2.78%; that for `Cc1cc(Nc2ccc([N+](=O)[O-])cc2O)nc2ccccc12` was 0%; that for `COc1ccc(C(=O)Nc2nonc2-c2ccc(OC)c(OC)c2)cc1Cl` was 0%. Next, `O=C(CN1CCN(C(=O)c2ccco2)CC1)Nc1cc(C(F)(F)F)ccc1Cl`: 0%; `Clc1ccc2[nH]c3c(NCCCN4CCOCC4)ncnc3c2c1`: 11.8%.

With `N#Cc1cn(-c2ccc(Cl)cc2)c(=O)n(Cc2c(Cl)cccc2Cl)c1=O`, the IFI turned out to be 3.48%. The value for `COc1ccccc1N(CC(=O)N1CCCCC1)S(=O)(=O)c1ccccc1` was 0%. Next, `COC(=O)[C@@H]1C[C@@H](NC(=O)c2ccc(OC)cc2OC)CN1Cc1cccc2ccccc12`: 0.848%. Next, `CN(C)c1ccc(C=NNc2nc(N)nc(N)n2)cc1`: 7.69%. In turn, `COc1cccc(-c2ccc(O)c(CN(C)CC(O)c3ccccc3)c2)n1` (stereo unspecified) showed an IFI of 2.56%.

The molecule `CN(C)S(=O)(=O)c1ccc(C(=O)Nc2nc3c(ccc4ccccc43)s2)cc1` registered an IFI of 4.54%. Next, `Cn1nc(C(F)(F)F)c(-c2ccc(F)cc2)c1NC(=O)Nc1ccc(F)cc1`: 3.42%; `O=[N+]([O-])c1ccc(S(=O)(=O)N2CCN(C(=S)NCCc3ccccc3)CC2)cc1`: 0%; `CCOc1cccc2c(C)nc(NC(=N)N)nc12`: 0%. Next, `CC1=C(C(=O)Nc2ccccn2)C(c2ccc(O)cc2)n2ncnc2N1` (stereo unspecified): 0%.

Consider `COc1ccc([N+](=O)[O-])cc1N(CC1CO1)S(=O)(=O)c1ccc(C)cc1` (stereo unspecified), for which the IFI was 0%.

`O=C(O)c1ccc(C=NNc2ccc([N+](=O)[O-])cc2)cc1` had an IFI of 4.32%.

Regarding `O=C(O)c1ccc(NC(=O)c2ccc(N3C(=O)C4C5C=CC(C5)C4C3=O)cc2)cc1` (stereo unspecified), the IFI came to 0%. The value for `OC1(C(F)(F)F)CC(c2ccccc2)=NN1c1nncc(-c2ccccc2)n1` (stereo unspecified) was 0%; that for `Oc1c(C(Nc2ccccn2)c2cccc(Oc3ccccc3)c2)ccc2cccnc12` (stereo unspecified) was 12.3%. Next, `C[n+]1ccccc1C=Cc1cc(Br)ccc1O`: 0%; `COC(=O)c1cccc(-c2cc(Cl)c3c(c2)CC(CNC(=O)c2c(C)noc2C)O3)c1` (stereo unspecified): 0%; `CC(C)CN(CC(=O)Nc1cc(C(C)(C)C)nn1-c1ccccc1)C(=O)c1cc(Cl)cc(Cl)c1`: 1.87%. The value for `COc1ccc(CN2CCN(C(=O)c3sc4ncn(Cc5ccccc5F)c(=O)c4c3C)CC2)c(OC)c1OC` was 1.15%. As for `CC[n+]1c(C=CN(C)C)sc2ccccc21`, the IFI was 4.62%. Next, `CCSc1sc2sccc2[n+]1CC`: 0%; `COc1cccc(NC(=O)Cn2c(C)c(C(C)=O)c3ccccc32)c1`: 0%.

As for `N#Cc1ccccc1Cn1nc(-c2cccnc2)oc1=O`, the IFI worked out at 0%. The value for `CCOc1ccc2nc(SCc3nc(N)nc(N4CCOCC4)n3)sc2c1` was 3.66%. Molecule `C=CCSc1ncc(-c2ccc(Cl)cc2)n1C` showed an IFI of 1.07%. Consider `CCCCc1c(C)nc2c(OC)cccc2c1O`, for which the IFI was determined as 0%. Next, `CCCOC(=O)CSc1nc(N)c(C#N)c(-c2ccco2)c1C#N`: 6.15%; `COC(=O)c1ccccc1NC(=O)CSc1nc2ccsc2c(=O)n1CCN1CCCC1`: 2.27%; `CCN1C=CC(=Cc2ccc3cc(C)ccc3[n+]2C)C=C1`: 15.4%. Next, `O=C(COC(=O)c1c2c(nc3ccccc13)CCCCCCCCCC2)c1ccc(Cl)cc1`: 0%.

These data come from ChEMBL document CHEMBL1156829.
